Assay results as given in patent publication US20230416360A1 (SIMCERE ZAIMING PHARMACEUTICAL, published 2023).

T1: murine CD22-ECD-His (mouse, UniProt P35329 22-708)
T1 construct: extracellular domain; Bought; also called mouse CD22; murine CD22 protein
T1 sequence (looked up): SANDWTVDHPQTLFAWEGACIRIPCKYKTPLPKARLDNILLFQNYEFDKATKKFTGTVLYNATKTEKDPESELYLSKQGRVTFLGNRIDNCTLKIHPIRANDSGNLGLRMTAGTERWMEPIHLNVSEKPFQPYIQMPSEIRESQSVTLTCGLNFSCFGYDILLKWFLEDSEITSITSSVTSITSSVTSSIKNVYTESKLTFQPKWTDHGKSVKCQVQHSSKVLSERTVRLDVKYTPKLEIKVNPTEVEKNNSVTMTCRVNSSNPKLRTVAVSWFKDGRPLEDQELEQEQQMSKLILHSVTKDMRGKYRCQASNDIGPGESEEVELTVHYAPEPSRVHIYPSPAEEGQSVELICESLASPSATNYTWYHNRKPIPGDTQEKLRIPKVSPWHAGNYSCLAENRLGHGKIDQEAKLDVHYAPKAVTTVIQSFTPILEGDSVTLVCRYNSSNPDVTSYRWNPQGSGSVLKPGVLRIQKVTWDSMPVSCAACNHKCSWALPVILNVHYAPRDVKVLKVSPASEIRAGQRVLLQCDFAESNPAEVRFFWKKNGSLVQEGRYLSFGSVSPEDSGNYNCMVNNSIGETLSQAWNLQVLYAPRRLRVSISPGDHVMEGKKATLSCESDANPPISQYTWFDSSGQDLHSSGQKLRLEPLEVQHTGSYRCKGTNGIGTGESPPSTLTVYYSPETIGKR

T2: human CD22-ECD-His (human, UniProt P20273 20-687)
T2 construct: Made in HEK293E, purified on nickel column; also called hCD22-ECD-His; recombinant human CD22-ECD His; not shown: His tag
T2 sequence: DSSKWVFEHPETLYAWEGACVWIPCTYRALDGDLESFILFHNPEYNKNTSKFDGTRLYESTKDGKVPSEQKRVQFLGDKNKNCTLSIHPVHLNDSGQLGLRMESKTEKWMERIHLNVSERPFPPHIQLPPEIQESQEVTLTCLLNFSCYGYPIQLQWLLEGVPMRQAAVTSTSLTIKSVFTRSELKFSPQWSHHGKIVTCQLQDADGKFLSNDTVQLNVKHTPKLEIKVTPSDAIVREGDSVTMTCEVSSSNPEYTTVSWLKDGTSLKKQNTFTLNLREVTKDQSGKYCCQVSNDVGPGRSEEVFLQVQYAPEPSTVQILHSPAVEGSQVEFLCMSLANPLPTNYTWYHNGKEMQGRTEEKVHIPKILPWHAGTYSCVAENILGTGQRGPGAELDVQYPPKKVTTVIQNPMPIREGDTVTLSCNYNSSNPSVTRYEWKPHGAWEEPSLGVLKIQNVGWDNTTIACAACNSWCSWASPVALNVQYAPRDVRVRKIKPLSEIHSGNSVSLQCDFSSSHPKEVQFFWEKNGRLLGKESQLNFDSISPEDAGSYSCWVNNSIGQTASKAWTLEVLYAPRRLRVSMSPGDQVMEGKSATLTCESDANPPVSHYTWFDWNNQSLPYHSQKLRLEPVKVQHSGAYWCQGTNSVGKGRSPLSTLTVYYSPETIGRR

B1: S002-NB151-2 VHH-Fc (Fc fusion)
chain: QVQLVESGGGLVQAGDSLRLSCAASGRTFSPSTMAWFRQAPGKERELVARIGWTYGDTYYVDSAKGRFTISMDNVKNTVYLQMNSLKPEDTAVYYCAALFRGGLSYNFSNRGTQVTVSS[human IgG1 Fc with changes cut from this listing]
notes: VHH cloned into vector BI3.4-huIgG1 (hinge and human IgG1 Fc), made in HEK293E; also called 5002-NB151-2
B2: S002-NB151-23 VHH-Fc (Fc fusion)
chain: QVQLVESGGGLVQAGGSLTVSCTNSGRTLSTSTIAWFRQKPGKDSEFVAAIRWSGGMGWYADSVKGRFTISRDNAENTVSLQMNTLQPEDTAVYFCAVSTVPYYGSIYTRVGDYPYWGQGTQVTVSS[human IgG1 Fc with changes cut from this listing]
notes: VHH cloned into vector BI3.4-huIgG1 (hinge and human IgG1 Fc), made in HEK293E; also called 5002-NB151-23
B3: S002-NB151-51 VHH-Fc (Fc fusion)
chain: QVQLVESGGGLVQAGGSLRLSCAASGITSDDYAIGWFRQAPGKEREGVSCMYSSDGSTYYADSVKGRFTISRDNAKNTVYLQMNSLRPEDTAVYHCAAGPWCFVTGVGREEWGQGTQVTVSS[human IgG1 Fc with changes cut from this listing]
notes: VHH cloned into vector BI3.4-huIgG1 (hinge and human IgG1 Fc), made in HEK293E; also called 5002-NB151-51
B4: S002-NB151-92 VHH-Fc (Fc fusion)
chain: QVQLVESGGGLVQSGGSLRLSCAASGFTFSDYTMNWVRQAPGKGLEWVSEISSGGHFKSNADSVKDRFTISRDNAKNTLYLQMNSLKPEDTAVYFCAKCPRPSVYCRDYESTSLYRGQGTQVTVSS[human IgG1 Fc with changes cut from this listing]
notes: VHH cloned into vector BI3.4-huIgG1 (hinge and human IgG1 Fc), made in HEK293E; also called 5002-NB151-92
B5: S002-NB151-30 VHH-Fc (Fc fusion)
chain: QVQLVESGGGLVQAGGSLRLSCAASGRASGSGAMGWFRQAPGQERRFVAGIEWSSGGPVYADSVKGRFTLSRDNAKNTVHLQMNSLKPEDTAVYYCAAAPWVFSSPDDYMYWGQGTQVTVSS[human IgG1 Fc with changes cut from this listing]
notes: VHH cloned into vector BI3.4-huIgG1 (hinge and human IgG1 Fc), made in HEK293E; also called 5002-NB151-30
B6: S002-NB151-36 VHH-Fc (Fc fusion)
chain: QVQLVESGGGLVQAGGSLRLSCAASGLTFSYYGMGWFRQAPGKEREFVAAINWSGTSTYYADSVKDRFTVSRDNAKNTAYLHMNNLKPEDTAVYYCAARKYSSSQAMGLPNDIDYWGQGTQVTVSS[human IgG1 Fc with changes cut from this listing]
notes: VHH cloned into vector BI3.4-huIgG1 (hinge and human IgG1 Fc), made in HEK293E; also called 5002-NB151-36
B7: S002-NB150-159n VHH-Fc (Fc fusion)
chain: QVQLVESGGGLVQAGDSLRLACEASGRTATISTMGWFRQAPGKEREFVGRIDWSAESTYIVDSVKGRFIISRDNAKNAGYLQMNSLKPVDTAVYYCAAIVVRERSYKYWGQGTQVTVSS[human IgG1 Fc with changes cut from this listing]
notes: VHH cloned into vector BI3.4-huIgG1 (hinge and human IgG1 Fc), made in HEK293E; also called S002-NB150-15911
B8: HA22 scFv-hFc (Fc fusion)
chain: EVQLVESGGGLVKPGGSLKLSCAASGFAFSIYDMSWVRQTPEKCLEWVAYISSGGGTTYYPDTVKGRFTISRDNAKNTLYLQMSSLKSEDTAMYYCARHSGYGTHWGVLFAYWGQGTLVTVSAGGGGSGGGGSGGGGSDIQMTQTTSSLSASLGDRVTISCRASQDISNYLNWYQQKPDGTVKLLIYYTSILHSGVPSRFSGSGSGTDYSLTISNLEQEDFATYFCQQGNTLPWTFGCGTKLEIK[human IgG1 Fc with changes cut from this listing]
B9: S002-NB151-13 VHH-Fc (Fc fusion)
chain: QVQLVESGGGLVQAGDSLRLSCAASTRIFRSYVMGWFRQAPGKEREAVASIRWSNDTGTYADSVKGRFTISRDNAKNTVYLQMNSLKPEDTAVYSCAADSPPWGRTWYTGYDYWGQGTQVTVSS[human IgG1 Fc with changes cut from this listing]
notes: VHH cloned into vector BI3.4-huIgG1 (hinge and human IgG1 Fc), made in HEK293E

target: T1, murine CD22-ECD-His; test: ELISA, coated mouse CD22, antibody 0.00001 nM
Method: (§1) The plate was sealed with plastic film and incubated overnight at 4° C., the plate was washed 2 times with PBS the next day, and then a blocking solution [PBS+2% (w/w) BSA] was added for blocking at room temperature for 2 hours. […] After incubation at 37° C. for 2 hours, the plate was washed 3 times with PBS. HRP (horseradish peroxidase)-labeled secondary antibody (purchased from Sigma, catalog number: A0170) was added, and incubated at 37° C. for 2 hours, and the plate was washed 5 times with PBS. TMB substrate was added at 50 μl/well, and incubated at room temperature for 30 minutes, then a stop solution (1.0 N HCl) was added at 50 μl/well.

Row | Binder | OD450
1 | B1 | 0.05
2 | B2 | 0.07
3 | B3 | 0.07
4 | B4 | 0.06
5 | B5 | 0.07
6 | B6 | 0.06
7 | B7 | 0.05

target: T1, murine CD22-ECD-His; test: ELISA, coated mouse CD22, antibody 0.0001 nM
Method: as §1

Row | Binder | OD450
8 | B1 | 0.06
9 | B2 | 0.06
10 | B3 | 0.08
11 | B4 | 0.05
12 | B5 | 0.07
13 | B6 | 0.05
14 | B7 | 0.05

target: T2, human CD22-ECD-His; test: ELISA, coated hCD22-ECD-His, antibody 0.10 nM
Method: as §1

Row | Binder | OD450
15 | B1 | 1.82
16 | B2 | 1.24
17 | B8 | 1.5
18 | B3 | 1.54
19 | B4 | 1.86
20 | B9 | 1.65
21 | B5 | 1.35
22 | B6 | 1.78
23 | B7 | 2.22

target: T1, murine CD22-ECD-His; test: ELISA, coated mouse CD22, antibody 0.001 nM
Method: as §1

Row | Binder | OD450
24 | B1 | 0.05
25 | B2 | 0.06
26 | B3 | 0.13
27 | B4 | 0.05
28 | B5 | 0.06
29 | B6 | 0.05
30 | B7 | 0.05

target: T2, human CD22-ECD-His; test: ELISA, antibody coated 2 ug/mL, hCD22-ECD-His titrated

Row | Binder | EC80 [nM]
31 | B1 | 20.8
32 | B2 | 3.2
33 | B8 | 0.8
34 | B3 | 1.6
35 | B4 | 15.6
36 | B9 | 80.1
37 | B5 | 8.13
38 | B6 | 11.1
39 | B7 | 5.73

target: T2, human CD22-ECD-His; test: ELISA, coated hCD22-ECD-His, antibody 0.00001 nM
Method: as §1

Row | Binder | OD450
40 | B1 | 0.17
41 | B2 | 0.26
42 | B8 | 0.06
43 | B3 | 0.07
44 | B4 | 0.06
45 | B9 | 0.2
46 | B5 | 0.11
47 | B7 | 0.07

target: T1, murine CD22-ECD-His; test: ELISA, coated mouse CD22, antibody 10 nM
Method: as §1

Row | Binder | OD450
48 | B1 | 0.06
49 | B2 | 0.07
50 | B3 | 2.77
51 | B4 | 0.05
52 | B5 | 0.07
53 | B6 | 0.05
54 | B7 | 0.05

target: T2, human CD22-ECD-His; test: ELISA, coated hCD22-ECD-His, antibody 10 nM
Method: as §1

Row | Binder | OD450
55 | B1 | 1.86
56 | B2 | 1.24
57 | B8 | 1.92
58 | B3 | 1.69
59 | B4 | 2.15
60 | B9 | 1.87
61 | B5 | 1.72
62 | B6 | 2.21
63 | B7 | 2.58

target: T2, human CD22-ECD-His; test: ELISA, coated hCD22-ECD-His, antibody 0.01 nM
Method: as §1

Row | Binder | OD450
64 | B1 | 1.17
65 | B2 | 0.69
66 | B8 | 0.45
67 | B3 | 0.6
68 | B4 | 0.71
69 | B9 | 0.86
70 | B5 | 0.53
71 | B6 | 0.69
72 | B7 | 0.9

target: T2, human CD22-ECD-His; test: ELISA, coated hCD22-ECD-His, antibody 0.001 nM
Method: as §1

Row | Binder | OD450
73 | B1 | 0.54
74 | B2 | 0.35
75 | B8 | 0.13
76 | B3 | 0.18
77 | B4 | 0.17
78 | B9 | 0.39
79 | B5 | 0.22
80 | B6 | 0.24
81 | B7 | 0.2

target: T1, murine CD22-ECD-His; test: ELISA, coated mouse CD22, antibody 100 nM
Method: as §1

Row | Binder | OD450
82 | B1 | 0.08
83 | B2 | 0.14
84 | B3 | 2.31
85 | B4 | 0.07
86 | B5 | 0.12
87 | B6 | 0.07
88 | B7 | 0.07

target: T1, murine CD22-ECD-His; test: ELISA, coated mouse CD22, antibody 0.10 nM
Method: as §1

Row | Binder | OD450
89 | B1 | 0.05
90 | B2 | 0.06
91 | B3 | 2.33
92 | B4 | 0.07
93 | B5 | 0.06
94 | B6 | 0.05
95 | B7 | 0.05

target: T2, human CD22-ECD-His; test: ELISA, coated hCD22-ECD-His, antibody 100 nM
Method: as §1

Row | Binder | OD450
96 | B1 | 1.93
97 | B2 | 1.33
98 | B8 | 2.01
99 | B3 | 1.68
100 | B4 | 1.61
101 | B9 | 2.12
102 | B5 | 1.8
103 | B6 | 2.58
104 | B7 | 3.2
